Test results taken from the RNAGym collection of RNA variant scans (doi:10.7554/elife.90254).
The source gives no read counts; variants with many changes may rest on few reads.

B1: LINE1-mini (parent)
chain: GGCAGAGCUCAACACAGCGUGGCAAAGUGGCUGUGGCUAGACUGCC

Variants of: B1
Assay: self-cleavage, relative activity (ratio to wild type); higher = more cleavage; in vitro, sequencing; the parent is a self-cleaving ribozyme

Variant | self-cleavage
GGCAGAGCUCAACCCAGCAUCGCAAAGAGGCUGUGGCUAGACUGAG | 0.03
GGCACAGCUCAACACCGCGUGGCAAAGUGGAUGUGGCUAGACUGCC | 0.01
GGCAGAUCUCUACACAGCGUGGCAAAGCGGCUGUGGCUAUACUGCC | 0
GGCAGAGCUGAACAAGGCGUGGCAAAGUGGCUGUGGCUAGACUGAA | 0.01
GGCAGAAAUCAACACAGCGUUGCAAGGUGGUUGUGGCUAGACUGCC | 0.18
CGCAGAGCUCAACACAGCUUGGCAGAGUGGCUGUAGCUAGACUGCC | 0.01
GGCAGAGCCCAACACAGCGUGGCAGAGUGGCUGUGGCUGGACUGGC | 0.01
GGCAGAGCUCAACACAGCGUGGCAAAGUGGCUGUGGCUCCACUGGC | 0.2
GCCAGAGCGCAAUACGGCGUGGCAAAGUGGCUGUGGCUAGAAUGCC | 0.06
GGCAGAUUUCAACACAGCGUGGCACAGUGUAUGUGGCUAGACUGCC | 0.07
GGUAGAGCUUAACACAGCUUGGCAAAGGGGCUGUGGCUGGACUGCC | 0.02
GGCAGAGCUGAACACAACGUGGUAAAGUGCCUAUGGCUAGACUGCG | 0.02
GGCAGAGCCCAAACCAGCGUGGAAAAGUGGCUGUGGCUAGAGUGCC | 0
GGCAGAGCUCAAUACAGGGUGGAAAAGUGGCUGUGGCUAGACUGCC | 0.06
GGAAGAGCUCAACACAGCGUUGCAAAGUGGCUGUGGCUAGACUGCA | 1.01
GGCAGAGCUCGACACACCUUGGCAAAGUGGGUGUGGCUAGACUGCC | 0.02
GGCAGAGCUCAACACACCGUGGAGAAGUGGCUGUCGCUCCACUGCC | 0.02
GACAGAGCUCAAGUCAGCGUGGCUAAUUGGCUAUGGCUAGACGGCC | 0.01
GGCGGAGCUCAACACAGCGUGGCAAAGGGGCUAUAGCUAGACUGCC | 0.11

Variant | self-cleavage
GGCAGAGUUCAACACAGCAUGGCAAAGUGGCUGUGGCUAGACUACC | 0.3
GGCAGAUCUCAACAAAACGUGGCAAAGUGGAUAUGGCUAGGAUGCC | 0.05
GGCAGAGCUCAACACAGCGUGGCACAUUGGCUGUGGCUAGACUGGC | 1.16
GACAGAGCUCAAUACAGCGUGGCAAAGUGGCUGUGGCUAAACUUCC | 0.28
GGCAGAGCUCAACACAGCGUGGCAAAUUGUAUGUGGCUAGAAGGCC | 0.22
GGCAAAGCUCAAGACAGUGUGGCAACGUAGCUGUGGCUAGUCUGCC | 0.03
GGCAGGGCUCAACACAGCCUGGCAAAGUGGCUGUGCCUAGACUGCC | 0.21
GGCAGAGUUCAACACAGCGUGGAAAAGUGGCUGUGGCCGGACUGCC | 0.11
GGCUGAGCUCUACACAGCGUGGAAAAGUGGCUGUGGCUAGACUGCC | 0.04
GGCAGAGCUCAACACAGUGUGGCAAAGUGGGUUUGGCUAGACUGCC | 0.03
GGAAGAACUAAACACAGCGUGGCAAAGUGGCUGUGUCUAGACUGCC | 0.02
GUCACAGCUCAACACAGCGUGGCAAAGUGGCUGUGGCUAGACUGUC | 0.01
GGCAGAGCUCAACACAGCGUGGCAAAGUUGCUGUGGCAAGACGGCC | 0
GGAAGAGAUCAACACCGCGUGACAAAGUGGCUGUGGCUAGAUUGCC | 0.88
GGAAGAGCUCAACCCAGCGUGGCAUAGUGGCUGUGGCUAGACUGCG | 0.08
GGUAGAGCUCAACACAGCGUGGCAAAGUGGCUCUGGCUAGACCACC | 0.04
GGCAGAGCUCAGAACAGCGUGGCAAAGUGGCUGUGUCUAGCUUGCC | 0.02
GGCAGAGCUUAACACAGCGUCCCCAAGUGGCUGUGGCUAGACUGCC | 0.03
GGCAGAGCUAAACCCAGCGUGGCAAAGUGGCUGUGGCAUGCCAGCC | 0.02

Variant | self-cleavage
GGCAGAGCUCAACACGGCGUGGCAAAGUGGCUAUGGCUUGACUGCC | 0.07
GGCAGGGGUCAACACAUCGUGGCGAAGUGGCUGUGGCUAGACUGCC | 0.01
GGGAGAUCUCAACACAGCGUGGCAAAGAGGAUGUGGCUAGACUGCC | 0.02
GGCAGAGCUCAACCCAGCGUGGCUAAGUGGGUGUGACUUGACUGCG | 0.02
GGCAGUGCUCAACACAGCUUGGCAAAGUGGCUGUGGCUAGACUUCC | 0.24
GGCACUGCUCAACACAGCGUGGCAACGUGGCUGUGGCUAGACAGCC | 0.02
GGCAGAGAUCAAUACAGCGUUGCAAAGUGGCUGUGGCUAGACUGCC | 0.13
GGGAGAGCACAACUCAGCGAGGCAAAGUGACUGUGCCUAGACUGCC | 0.04
GGAAAUGCCCAACUCAGCGUGGCUAAGUGGCUGUGGAUAGACUGCC | 0.05
GGCAACUCUCAACACAGCGUGGCAAAGUGGCUGUGGCUAGACAGCC | 0.45
GGAAGAGCUAAACCCAGCGUCGCAAAGUGGCUGUGGCUAGACUGCC | 0
GGCAGCGCUCAACACAGCGUGACAAAGUGGCUGUGGCUAAACUGCC | 0.33
GGGAGAGAUCACCACAGCGUGGCAAAGUGGCUGUGGCUAGACUGCC | 0.21
GCCAGAGCUAAAUACAGCGUGACAAAGUGGCAGUGGCUCGACUGCC | 0.01
UGCAGAGCUCAACACAGCGUGGCAAAGUAGCUGGGGCUAGACUGCA | 0.5
UGCAGAGCUCAACACAGCGUUGCAAAGUGGCUGUGGCCAGACUGUC | 0.17
GGCAGAGUUCAACACAGCUUAGCAAAGUGGCUGUGGCUAGACUGCC | 0.24
UGCAGAGCUCAACACUGCGCGGCAAAGUUGCUUUGCUUUGAUUGCC | 0.01
